{"source": "PubChem BioAssay (NCATS)", "note": "This list was built around the results that the source calls inconclusive (neither active nor inactive); the mix of calls is not that of the screen. Potencies of inconclusive entries are doubtful fits and often do not repeat. Activity calls are given as the source filed them. Calls come from the whole dose curve; as a rule, active = well fitted inhibition curve with a large enough effect; inconclusive = small, poorly fitted or top-dose-only effect; inactive = no such curve, though single readings can be large or run the other way.", "data": [{"assay": "qHTS to identify inhibitors of the type 1 interferon - major histocompatibility complex class I in skeletal muscle: primary screen against the NCATS Mechanism Interrogation Plate v5.0 (MIPE) Libary (AID 1347411); note: nearly all actives have a fitted effect of over 65% in size; note: potency is the fitted concentration of half-maximal effect; tags give direction and shape of the fitted curve;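 for activity change, negative = inhibition: plate controls were vehicle for no effect and reference inhibitor for full effect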", "conditions": "iHSKM cells + IFN-b, HiBiT-tagged MHC-I luminescence, 24 h; activity change, negative = inhibition: at 45.8 µM (top of the series)", "method_in_brief": "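Seed engineered human myoblasts (HLA-B HiBit) in medium without dexamethasone containing 4 ng/ml IFN-beta; after 1 hr add compound titrations (top 46 uM final). Incubate 24 hrs at 37 C, lyse 10 min with HiBiT reagent, read luminescence.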", "values": [{"compound": "Nc1ccn(C2CO[C@H](CO)O2)c(=O)n1", "note": "(some centres not stated)", "activity change, negative = inhibition": "inactive: -2.98%"}, {"compound": "O=C(NC1CCNCC1)c1[nH]ncc1NC(=O)c1c(Cl)cccc1Cl", "Potency": "active: 0.262 µM"}, {"compound": "COc1cc2ncnc(Nc3cc(Br)c(O)c(Br)c3)c2cc1OC", "Potency": "inconclusive: 46.6 µM [inhibitor, single point]"}, {"compound": "COc1cc(Nc2ncc3c(n2)-c2ccc(Cl)cc2C(c2c(F)cccc2OC)=NC3)ccc1C(=O)O", "Potency": "inconclusive: 4.15 µM [inhibitor, full curve, poor fit]"}, {"compound": "C[C@@H](NCc1cc2ccccc2[nH]1)c1cccc2ccccc12", "Potency": "inconclusive: 29.4 µM [inhibitor, partial curve, poor fit]"}, {"compound": "Cc1c(C(=O)NN2CCCCC2)nn(-c2ccc(Cl)cc2Cl)c1-c1ccc(Cl)cc1", "Potency": "inconclusive: 16.5 µM [inhibitor, partial curve, poor fit]"}, {"compound": "CCCS(=O)(=O)Nc1ccc(F)c(C(=O)c2c[nH]c3ncc(Cl)cc23)c1F", "Potency": "inconclusive: 16.5 µM [inhibitor, partial curve]"}, {"compound": "COc1cc2c(cc1OC)CN(CCc1ccc(NC(=O)c3cccc4c(=O)c5cccc(OC)c5[nH]c34)cc1)CC2", "activity change, negative = inhibition": "inactive: -10%"}, {"compound": "Cc1csc(-c2nnc(Nc3ccc(Oc4ncccc4-c4ccnc(N)n4)cc3)c3ccccc23)c1", "Potency": "inconclusive: 10.4 µM [inhibitor, partial curve]"}, {"compound": "CNC(=O)c1cc(Oc2ccc(NC(=O)Nc3ccc(Cl)c(C(F)(F)F)c3)cc2)ccn1", "Potency": "active: 16.5 µM"}, {"compound": "COc1cc2c(cc1-c1c(C)noc1C)ncc1[nH]c(=O)n([C@H](C)c3ccccn3)c12", "Potency": "inconclusive: 2.94 µM [inhibitor, full curve]"}, {"compound": "Cc1ccc(-c2cc(C(F)(F)F)nn2-c2ccc(S(N)(=O)=O)cc2)cc1", "Potency": "inconclusive: 8.29 µM [inhibitor, partial curve, poor fit]"}, {"compound": "C[C@@H]1CC(=O)NN=C1c1ccc(NN=C(C#N)C#N)cc1", "Potency": "active: 18.6 µM"}, {"compound": "Cn1cc(-c2ccc3nnc(Sc4ccc5ncccc5c4)n3n2)cn1", "activity change, negative = inhibition": "inactive: -28.5%"}, {"compound": "CCCS(=O)(=O)Nc1ccc(F)c(C(=O)c2c[nH]c3ncc(-c4ccc(Cl)cc4)cc23)c1F", "activity change, negative = inhibition": "inconclusive: -30.8% [inhibitor]"}, {"compound": "Cc1cccc(-c2[nH]c(C(C)(C)C)nc2-c2ccc3c(c2)OCO3)n1", "activity change, negative = inhibition": "inactive: -22.5%"}, {"compound": "O=C1[C@H](Cc2ccc(O)cc2)N2C(=O)CCN(C(=O)NCc3ccccc3)[C@H]2CN1Cc1cccc2ccccc12", "Potency": "inconclusive: 11.7 µM [inhibitor, partial curve]"}, {"compound": "Clc1ccc(COC(Cn2ccnc2)c2ccc(Cl)cc2Cl)c(Cl)c1", "note": "(configuration not stated)", "Potency": "inconclusive: 41.5 µM [inhibitor, single point]"}, {"compound": "C=CC(=O)Nc1cccc(Oc2nc(Nc3ccc(N4CCN(C)CC4)cc3OC)ncc2Cl)c1", "Potency": "inconclusive: 23.4 µM [inhibitor, partial curve, poor fit]"}, {"compound": "CC1=NN(c2ccccc2)C(=O)C1", "activity change, negative = inhibition": "inactive: -8.2%"}, {"compound": "Nc1nc(=S)c2[nH]cnc2[nH]1", "activity change, negative = inhibition": "inactive: 10%"}, {"compound": "CC(C)c1ccccc1Cc1cc(C(=O)Nc2ccc(S(=O)(=O)c3ccccc3C(C)(C)C)cc2)c(O)c(O)c1O", "Potency": "inconclusive: 3.7 µM [inhibitor, partial curve, poor fit]"}, {"compound": "Fc1ccc(CNc2ncnc3ccc(F)cc23)cc1", "Potency": "inconclusive: 1.04 µM [inhibitor, full curve]"}, {"compound": "CC(C)(Sc1ccc(CCN(CCCCC2CCCCC2)C(=O)NC2CCCCC2)cc1)C(=O)O", "activity change, negative = inhibition": "inactive: -1.27%"}, {"compound": "COc1cccc2nc(-c3cccs3)nc(NN3C(=O)C=C(C)C3=O)c12", "Potency": "active: 2.94 µM"}, {"compound": "NC(=O)c1cccnc1", "activity change, negative = inhibition": "inactive: -4.09%"}, {"compound": "CN(C)c1nc(N(C)C)nc(N(C)C)n1", "activity change, negative = inhibition": "inactive: 7.82%"}, {"compound": "Cn1cnc(-c2cc3nccc(Oc4ccc(NC(=S)NC(=O)Cc5ccccc5)cc4F)c3s2)c1", "activity change, negative = inhibition": "inconclusive: -37.9% [inhibitor]"}, {"compound": "CCN(CC)Cc1ccc2cc(COC(=O)Nc3ccc(C(=O)NO)cc3)ccc2c1", "Potency": "inconclusive: 0.829 µM [inhibitor, full curve]"}, {"compound": "COc1ccccc1-c1cccc(-c2c(O)c3cc(C#N)c(Cl)cc3[nH]c2=O)c1", "activity change, negative = inhibition": "inactive: -22.8%"}, {"compound": "COc1cc2c(Nc3ccc(NC(=O)c4ccccc4)cc3)ncnc2cc1OCCCN1CCOCC1", "Potency": "inconclusive: 23.4 µM [inhibitor, single point]"}, {"compound": "COCCCOc1ccnc(CS(=O)c2nc3ccccc3[nH]2)c1C", "note": "(configuration not stated)", "Potency": "inconclusive: 0.829 µM [inhibitor, single point]"}]}]}
